For 22 molecules, binding signal results are on record in PMC12136788.

Sequences and labels used below:
T1: UNK ZnF1-6 (called full-length) (human, UniProt Q9C0B0 30-357)
T1 sequence: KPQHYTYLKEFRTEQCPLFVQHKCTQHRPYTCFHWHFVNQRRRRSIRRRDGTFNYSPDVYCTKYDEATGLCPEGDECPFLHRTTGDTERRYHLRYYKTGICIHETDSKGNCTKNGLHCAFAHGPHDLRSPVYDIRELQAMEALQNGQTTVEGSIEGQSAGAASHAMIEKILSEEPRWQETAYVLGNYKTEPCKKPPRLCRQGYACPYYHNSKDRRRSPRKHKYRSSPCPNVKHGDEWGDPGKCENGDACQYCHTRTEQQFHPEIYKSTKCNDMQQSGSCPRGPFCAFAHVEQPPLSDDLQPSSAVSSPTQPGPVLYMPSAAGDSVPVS

B1: chr1:6224442:6224573:-|3pUTR|ENSG00000116237|msi1_unk|total|mutant (ssRNA)
RNA: GGGAGUUCUACAGUCCGACGAUCCUAUACAAUUUUAAAAAUACUUCCUCACCGGAUGCUUUGGCCCUUCAUCUAUUUAAUCACCGCUACAUACCUAUUUUUUAUAAGCCGCAGUACACAUUCAAAGGGGUAUUCCCCGCUCAACAACAGAGGAUUGAGCAUCA
B2: chr15:63775065:63775180:-|CDS|ENSG00000103657|unk|FALSE|unique (ssRNA)
RNA: GGGAGUUCUACAGUCCGACGAUCUGGUUCAGCAGAUGUCCAUUCUGUUAGUGAACGCCCCCGGUCAAGCACUGAUGCACUUAUAGAAAUGGGUGUUCGAACUGGUCUAAGUUUAUUAUUUGCGCUUCUAAGACAAAGUUGGAUCAACAGAGGAUUGAGCAUCA
B3: chr1:17407970:17408071:-|3pUTR|ENSG00000179051|msi1|FALSE|unique (ssRNA)
RNA: GGGAGUUCUACAGUCCGACGAUCGGGUACCGUUCUGCUGACCCAGCUCCCUUUAGUCACGUUUGCUUGGCUCUGGUACCAAAUAGUUGGGAUUACCGAAGAGUCCCCUUCCUUGCGUGUCAGCACGGAUGCUGUGACUGCCACCAACAGAGGAUUGAGCAUCA
B4: ENSG00000179431:stop:overlap|stop_codon|ENSG00000179431|stop_codon|NA|stop_codon (ssRNA)
RNA: GGGAGUUCUACAGUCCGACGAUCACUUCCUCGCCAAGCACAUUUUGCACUGUAAGGCCAAGUACGGCCGCCGGUCUGGGACUUAGUGUCACCGGGAGGAAAAGAGAGAGAUCUGGGGCUGGGGUAUGGAUGAUGGGGGGAAGGCAACAGAGGAUUGAGCAUCA
B5: ENSG00000142192:stop:overlap|stop_codon|ENSG00000142192|stop_codon|NA|stop_codon (ssRNA)
RNA: GGGAGUUCUACAGUCCGACGAUCAGAUGCAGCAGAACGGCUACGAAAAUCCAACCUACAAGUUCUUUGAGCAGAUGCAGAACUAGACCCCCGCCACAGCAGCCUCUGAAGUUGGACAGCAAAACCAUUGCUUCACUACCCAUCCAACAGAGGAUUGAGCAUCA
B6: chr2:216675367:216675485:-|3pUTR|ENSG00000115461|msi1|FALSE|unique (ssRNA)
RNA: GGGAGUUCUACAGUCCGACGAUCGCCAGGCAGAGGCCAGCCCUCCGUGGUGCACACAGCACGCGCCUCAGUCCAUCCCAUUUUAGUCUUUAAACCCUCAGGAAGUCACAGUCUCCGGACACCACACCACAUGAGCCCAACAGGCAACAGAGGAUUGAGCAUCA
B7: ENSG00000198589:be:win_9151|3pUTR|ENSG00000198589|bound_else_gene|NA|bound_elsewhere_windowed (ssRNA)
RNA: GGGAGUUCUACAGUCCGACGAUCAUUGUGUGGUUAGCACAAGGAAUCUAAUUUAUAGCAAGUGUGAAAUAGUUACCAUUUUUUCCUGAUCUGUCAUCUUCAUAGCACAACAAAACGAAAUGAUGGAAAUGCUCUUGAGCUCACCAACAGAGGAUUGAGCAUCA
B8: chr1:109011400:109011505:-|CDS|ENSG00000085433|unk|total|mutant (ssRNA)
RNA: GGGAGUUCUACAGUCCGACGAUCGUCAUGGUUGCAGAAUUCAUCCCUGCUGACCGGAAGCUAAGUGAAGCUGGUUUUAAGGCCCGUAACAAUCGUUUAUUUCAGCUUGUAAUGAAAGGCCUGCUUUAUGAAUGCUGUGCCGAACAACAGAGGAUUGAGCAUCA
B9: chr5:16663783:16663884:-|3pUTR|ENSG00000145555|msi1|total|mutant (ssRNA)
RNA: GGGAGUUCUACAGUCCGACGAUCUGAGGAUACAAAAUUCACAGAUGCUCAAGUCCCUGCUAUACAGUGGUAUAAUAUUUGCACCGAACCUGCACACAUCUUUCCUUACCCUUUAAAUCAUCUCCAGGUUACAGAUACCCCGCACAACAGAGGAUUGAGCAUCA
B10: chrX:152133309:152134510:-|three_prime_utr|ENSG00000124260|control|control|control (ssRNA)
RNA: GGGAGUUCUACAGUCCGACGAUCUGAUUUUACUCAUAUGUGGAAUCUAAAAAAAAAAAAAAAAAAAGUUGGUAUCAUGGAAGUAGAGAGUAGAGCAGUAGUUACAUUACAAUUAAAUAGGAGGAAUAAGUUCUAGUGUUCUAUCAACAGAGGAUUGAGCAUCA
B11: chr20:3864521:3864622:+|CDS|ENSG00000088888|msi1|total|mutant (ssRNA)
RNA: GGGAGUUCUACAGUCCGACGAUCGCCCUGAAAGUGCCUGCCAACCCAGCAUCUGUCAGCACAGUGCCCUCCAAGUUGCCAACCCGCUCAAAGCCCCCUGGUGCAGUGCCUUCUAAUGCGCUCACCAAUCCAGCACCAUCCAAACAACAGAGGAUUGAGCAUCA
B12: ENSG00000115216:stop:overlap|stop_codon|ENSG00000115216|stop_codon|NA|stop_codon (ssRNA)
RNA: GGGAGUUCUACAGUCCGACGAUCACAAGUUCAAUUUUGCCAGGAACAGUACCCUCAACUCAGCCGCUGUCACCGUCUCCUCUUAGAGCUCACUCGGGCCAGGCCCUGAUCUGCGCUGUGGCUGUCCCUGGACGUGCUGCAGCCCAACAGAGGAUUGAGCAUCA
B13: ENSG00000132341:stop:overlap|stop_codon|ENSG00000132341|stop_codon|NA|stop_codon (ssRNA)
RNA: GGGAGUUCUACAGUCCGACGAUCUCUCGCCCCACCAGAAGUUGUCAUGGACCCAGCUUUGGCAGCACAGUAUGAGCACGACUUAGAGGUUGCUCAGACAACUGCUCUCCCGGAUGAGGAUGAUGACCUGUGAGAAUGAAGCUGCAACAGAGGAUUGAGCAUCA
B14: chr2:120221238:120221343:-|3pUTR|ENSG00000226479|unk|total|mutant (ssRNA)
RNA: GGGAGUUCUACAGUCCGACGAUCAUAUGUUGAAUUCCCGUUCUCUGCAUUACCAUUAUUACGUUAAAGUAUUUUUUAAAGCUCCGGUGUGAAGAUAUGUGUCUAUUGCAGAUGUCCUUGAAAACUGCAUAAAACAGUAUGUGCCAACAGAGGAUUGAGCAUCA
B15: chr19:58083837:58084684:-|three_prime_utr|ENSG00000121413|control|control|control (ssRNA)
RNA: GGGAGUUCUACAGUCCGACGAUCGCUCGCAUCCGAGGGGAGCCGCCGGAUGUGGAAGAAGACUCGGCUUUCCUGCAGCCAUUUAGUGCCGCCCCAUGCUAGGUUAUUUGACAUUGUGCAGUGUAGAGUUGCCUUAAAGUGCGUCAACAGAGGAUUGAGCAUCA
B16: chr1:93346344:93346492:+|5pUTR|ENSG00000117505|unk|total|mutant (ssRNA)
RNA: GGGAGUUCUACAGUCCGACGAUCGCCGCUCAAAUUUCCGGACCACCGCGCUUUCCCCUCCUCAGCCUGGGCUGUGCUCUCUCCCGAAUCCUCGGGCCCCCACUUUCUUCCCAAACUCAUCCUAAAUCUCUCACACACGCGAGUCAACAGAGGAUUGAGCAUCA
B17: ENSG00000136451:be:win_501|CDS|ENSG00000136451|bound_else_gene|NA|bound_elsewhere_windowed (ssRNA)
RNA: GGGAGUUCUACAGUCCGACGAUCUAAGCCUGUCAAGAAGAACCAUGCUUGUGAGAUGUGUGGGAAGGCCUUCCGAGAUGUGUACCAUCUCAAUCGACACAAGCUCUCCCAUUCAGAUGAGAAACCCUUUGAGUGUCCUAUUUGCAACAGAGGAUUGAGCAUCA
B18: chr17:63354981:63355093:+|CDS|ENSG00000170921|unk|total|mutant (ssRNA)
RNA: GGGAGUUCUACAGUCCGACGAUCCAGUCAAGGGUCCUAUCUAUAUCUGAAACUUACAUUUGACCUCACCGAGAAAGGCUAUCCCGUGUUAAAGAGCUCCCGCUACAAAGCCGUUCCUGUUUCGCUCUCAGAGGUUUAUUUACUCAACAGAGGAUUGAGCAUCA
B19: chr8:11323570:11323671:+|3pUTR|ENSG00000104643|unk|FALSE|unique (ssRNA)
RNA: GGGAGUUCUACAGUCCGACGAUCGAGCAUACAUAUACAAUGUGUUUCAAAUGCUGCUUGUAAAAUUAAACCAUCAUCUAGAAUAGAGUUAAUUUAUUAUAAUCAAGCUACAAAUAGGUUUUCUUAAACCAGAGAUGCACUGCCCAACAGAGGAUUGAGCAUCA
B20: chr21:43982464:43982545:+|3pUTR|ENSG00000160216|msi1_unk|total|mutant (ssRNA)
RNA: GGGAGUUCUACAGUCCGACGAUCCCCUGACGGUGGUAUCCAGUUAACUCAAAACCAACACACAGAGUGCAGGAAAAGACAAUCCGAAACUAUUUUUCUUAUUAACUGGUGACUAAUAUUAACAAAACUUGAGCCAAGAGUAAACAACAGAGGAUUGAGCAUCA
B21: ENSG00000070961:be:win_2651|CDS|ENSG00000070961|bound_else_gene|NA|bound_elsewhere_windowed (ssRNA)
RNA: GGGAGUUCUACAGUCCGACGAUCCUGUGCAGAUGCUGUGGGUAAACCUCAUAAUGGAUACACUCGCUUCCCUGGCUCUGGCAACGGAACCACCCACUGAGUCUCUCUUGCUUCGGAAACCUUAUGGUAGAAAUAAGCCUCUCACAACAGAGGAUUGAGCAUCA
B22: chr4:75876286:75876673:-|CDS|ENSG00000156194|control|control|control (ssRNA)
RNA: GGGAGUUCUACAGUCCGACGAUCCGGUUCCCUGGACGGGCGGGAGCUCUCCCGGCAGGUGCGGAGCUCCGUGGAACUGGAGCUAGAGCGGUGCCGGCAGCAAGCAGGCCUCCUGGUGACCGGAGAGAAAGAGGAGCCCUCCCGCAACAGAGGAUUGAGCAUCA

This is one part of the list.

For this assay, the target named is T1, UNK ZnF1-6 (called full-length). As to the kind of experiment: nsRBNS (natural sequence RNA bind-n-seq); RBNS binding buffer (assumed for nsRBNS): 25 mM Tris pH 7.5, 150 mM KCl, 3 mM MgCl2, 0.01% Triton X-100, 500 ug/ml BSA, 20 U/ml SUPERase-In, 4 C; UNK is unkempt and MSI1 is Musashi-1; names of the RNAs are library labels; protein concentration not given here; high values mean tight binding.
In the case of B1, the binding signal amounted to 3.91 enrichment R.

As to B2, the binding signal worked out at 0.696 enrichment R.

B3 came in with a binding signal of 2 enrichment R.

The molecule B4 gave a binding signal of 0.579 enrichment R.

As for B5, the binding signal is 0.618 enrichment R.

Turning to B6, the binding signal was found to be 2.44 enrichment R.

Consider B7, for which the binding signal came out at 4.03 enrichment R.

For B8, the binding signal stood at 0.748 enrichment R.

Take B9: the binding signal amounted to 0.511 enrichment R.

B10 came in with a binding signal of 2.99 enrichment R.

For B11, the binding signal worked out at 0.713 enrichment R.

On to B12, for which the binding signal was 1.02 enrichment R.

Take B13: the binding signal was found to be 0.768 enrichment R.

On to B14, for which the binding signal was determined as 0.71 enrichment R.

For B15, the binding signal is 0.832 enrichment R.

B16 gave a binding signal of 1.2 enrichment R.

For the molecule B17, the binding signal was determined as 0.49 enrichment R.

B18 gave a binding signal of 0.664 enrichment R.

The molecule B19 yielded a binding signal of 2.54 enrichment R.

In turn, B20 registered a binding signal of 0.522 enrichment R.

B21 returned a binding signal of 0.414 enrichment R.

The molecule B22 displayed a binding signal of 0.663 enrichment R.
